Three molecules from PMC12251097 can be followed below.

Amino acid sequences for entries named in this document (tags omitted).
UniProt E9Q555: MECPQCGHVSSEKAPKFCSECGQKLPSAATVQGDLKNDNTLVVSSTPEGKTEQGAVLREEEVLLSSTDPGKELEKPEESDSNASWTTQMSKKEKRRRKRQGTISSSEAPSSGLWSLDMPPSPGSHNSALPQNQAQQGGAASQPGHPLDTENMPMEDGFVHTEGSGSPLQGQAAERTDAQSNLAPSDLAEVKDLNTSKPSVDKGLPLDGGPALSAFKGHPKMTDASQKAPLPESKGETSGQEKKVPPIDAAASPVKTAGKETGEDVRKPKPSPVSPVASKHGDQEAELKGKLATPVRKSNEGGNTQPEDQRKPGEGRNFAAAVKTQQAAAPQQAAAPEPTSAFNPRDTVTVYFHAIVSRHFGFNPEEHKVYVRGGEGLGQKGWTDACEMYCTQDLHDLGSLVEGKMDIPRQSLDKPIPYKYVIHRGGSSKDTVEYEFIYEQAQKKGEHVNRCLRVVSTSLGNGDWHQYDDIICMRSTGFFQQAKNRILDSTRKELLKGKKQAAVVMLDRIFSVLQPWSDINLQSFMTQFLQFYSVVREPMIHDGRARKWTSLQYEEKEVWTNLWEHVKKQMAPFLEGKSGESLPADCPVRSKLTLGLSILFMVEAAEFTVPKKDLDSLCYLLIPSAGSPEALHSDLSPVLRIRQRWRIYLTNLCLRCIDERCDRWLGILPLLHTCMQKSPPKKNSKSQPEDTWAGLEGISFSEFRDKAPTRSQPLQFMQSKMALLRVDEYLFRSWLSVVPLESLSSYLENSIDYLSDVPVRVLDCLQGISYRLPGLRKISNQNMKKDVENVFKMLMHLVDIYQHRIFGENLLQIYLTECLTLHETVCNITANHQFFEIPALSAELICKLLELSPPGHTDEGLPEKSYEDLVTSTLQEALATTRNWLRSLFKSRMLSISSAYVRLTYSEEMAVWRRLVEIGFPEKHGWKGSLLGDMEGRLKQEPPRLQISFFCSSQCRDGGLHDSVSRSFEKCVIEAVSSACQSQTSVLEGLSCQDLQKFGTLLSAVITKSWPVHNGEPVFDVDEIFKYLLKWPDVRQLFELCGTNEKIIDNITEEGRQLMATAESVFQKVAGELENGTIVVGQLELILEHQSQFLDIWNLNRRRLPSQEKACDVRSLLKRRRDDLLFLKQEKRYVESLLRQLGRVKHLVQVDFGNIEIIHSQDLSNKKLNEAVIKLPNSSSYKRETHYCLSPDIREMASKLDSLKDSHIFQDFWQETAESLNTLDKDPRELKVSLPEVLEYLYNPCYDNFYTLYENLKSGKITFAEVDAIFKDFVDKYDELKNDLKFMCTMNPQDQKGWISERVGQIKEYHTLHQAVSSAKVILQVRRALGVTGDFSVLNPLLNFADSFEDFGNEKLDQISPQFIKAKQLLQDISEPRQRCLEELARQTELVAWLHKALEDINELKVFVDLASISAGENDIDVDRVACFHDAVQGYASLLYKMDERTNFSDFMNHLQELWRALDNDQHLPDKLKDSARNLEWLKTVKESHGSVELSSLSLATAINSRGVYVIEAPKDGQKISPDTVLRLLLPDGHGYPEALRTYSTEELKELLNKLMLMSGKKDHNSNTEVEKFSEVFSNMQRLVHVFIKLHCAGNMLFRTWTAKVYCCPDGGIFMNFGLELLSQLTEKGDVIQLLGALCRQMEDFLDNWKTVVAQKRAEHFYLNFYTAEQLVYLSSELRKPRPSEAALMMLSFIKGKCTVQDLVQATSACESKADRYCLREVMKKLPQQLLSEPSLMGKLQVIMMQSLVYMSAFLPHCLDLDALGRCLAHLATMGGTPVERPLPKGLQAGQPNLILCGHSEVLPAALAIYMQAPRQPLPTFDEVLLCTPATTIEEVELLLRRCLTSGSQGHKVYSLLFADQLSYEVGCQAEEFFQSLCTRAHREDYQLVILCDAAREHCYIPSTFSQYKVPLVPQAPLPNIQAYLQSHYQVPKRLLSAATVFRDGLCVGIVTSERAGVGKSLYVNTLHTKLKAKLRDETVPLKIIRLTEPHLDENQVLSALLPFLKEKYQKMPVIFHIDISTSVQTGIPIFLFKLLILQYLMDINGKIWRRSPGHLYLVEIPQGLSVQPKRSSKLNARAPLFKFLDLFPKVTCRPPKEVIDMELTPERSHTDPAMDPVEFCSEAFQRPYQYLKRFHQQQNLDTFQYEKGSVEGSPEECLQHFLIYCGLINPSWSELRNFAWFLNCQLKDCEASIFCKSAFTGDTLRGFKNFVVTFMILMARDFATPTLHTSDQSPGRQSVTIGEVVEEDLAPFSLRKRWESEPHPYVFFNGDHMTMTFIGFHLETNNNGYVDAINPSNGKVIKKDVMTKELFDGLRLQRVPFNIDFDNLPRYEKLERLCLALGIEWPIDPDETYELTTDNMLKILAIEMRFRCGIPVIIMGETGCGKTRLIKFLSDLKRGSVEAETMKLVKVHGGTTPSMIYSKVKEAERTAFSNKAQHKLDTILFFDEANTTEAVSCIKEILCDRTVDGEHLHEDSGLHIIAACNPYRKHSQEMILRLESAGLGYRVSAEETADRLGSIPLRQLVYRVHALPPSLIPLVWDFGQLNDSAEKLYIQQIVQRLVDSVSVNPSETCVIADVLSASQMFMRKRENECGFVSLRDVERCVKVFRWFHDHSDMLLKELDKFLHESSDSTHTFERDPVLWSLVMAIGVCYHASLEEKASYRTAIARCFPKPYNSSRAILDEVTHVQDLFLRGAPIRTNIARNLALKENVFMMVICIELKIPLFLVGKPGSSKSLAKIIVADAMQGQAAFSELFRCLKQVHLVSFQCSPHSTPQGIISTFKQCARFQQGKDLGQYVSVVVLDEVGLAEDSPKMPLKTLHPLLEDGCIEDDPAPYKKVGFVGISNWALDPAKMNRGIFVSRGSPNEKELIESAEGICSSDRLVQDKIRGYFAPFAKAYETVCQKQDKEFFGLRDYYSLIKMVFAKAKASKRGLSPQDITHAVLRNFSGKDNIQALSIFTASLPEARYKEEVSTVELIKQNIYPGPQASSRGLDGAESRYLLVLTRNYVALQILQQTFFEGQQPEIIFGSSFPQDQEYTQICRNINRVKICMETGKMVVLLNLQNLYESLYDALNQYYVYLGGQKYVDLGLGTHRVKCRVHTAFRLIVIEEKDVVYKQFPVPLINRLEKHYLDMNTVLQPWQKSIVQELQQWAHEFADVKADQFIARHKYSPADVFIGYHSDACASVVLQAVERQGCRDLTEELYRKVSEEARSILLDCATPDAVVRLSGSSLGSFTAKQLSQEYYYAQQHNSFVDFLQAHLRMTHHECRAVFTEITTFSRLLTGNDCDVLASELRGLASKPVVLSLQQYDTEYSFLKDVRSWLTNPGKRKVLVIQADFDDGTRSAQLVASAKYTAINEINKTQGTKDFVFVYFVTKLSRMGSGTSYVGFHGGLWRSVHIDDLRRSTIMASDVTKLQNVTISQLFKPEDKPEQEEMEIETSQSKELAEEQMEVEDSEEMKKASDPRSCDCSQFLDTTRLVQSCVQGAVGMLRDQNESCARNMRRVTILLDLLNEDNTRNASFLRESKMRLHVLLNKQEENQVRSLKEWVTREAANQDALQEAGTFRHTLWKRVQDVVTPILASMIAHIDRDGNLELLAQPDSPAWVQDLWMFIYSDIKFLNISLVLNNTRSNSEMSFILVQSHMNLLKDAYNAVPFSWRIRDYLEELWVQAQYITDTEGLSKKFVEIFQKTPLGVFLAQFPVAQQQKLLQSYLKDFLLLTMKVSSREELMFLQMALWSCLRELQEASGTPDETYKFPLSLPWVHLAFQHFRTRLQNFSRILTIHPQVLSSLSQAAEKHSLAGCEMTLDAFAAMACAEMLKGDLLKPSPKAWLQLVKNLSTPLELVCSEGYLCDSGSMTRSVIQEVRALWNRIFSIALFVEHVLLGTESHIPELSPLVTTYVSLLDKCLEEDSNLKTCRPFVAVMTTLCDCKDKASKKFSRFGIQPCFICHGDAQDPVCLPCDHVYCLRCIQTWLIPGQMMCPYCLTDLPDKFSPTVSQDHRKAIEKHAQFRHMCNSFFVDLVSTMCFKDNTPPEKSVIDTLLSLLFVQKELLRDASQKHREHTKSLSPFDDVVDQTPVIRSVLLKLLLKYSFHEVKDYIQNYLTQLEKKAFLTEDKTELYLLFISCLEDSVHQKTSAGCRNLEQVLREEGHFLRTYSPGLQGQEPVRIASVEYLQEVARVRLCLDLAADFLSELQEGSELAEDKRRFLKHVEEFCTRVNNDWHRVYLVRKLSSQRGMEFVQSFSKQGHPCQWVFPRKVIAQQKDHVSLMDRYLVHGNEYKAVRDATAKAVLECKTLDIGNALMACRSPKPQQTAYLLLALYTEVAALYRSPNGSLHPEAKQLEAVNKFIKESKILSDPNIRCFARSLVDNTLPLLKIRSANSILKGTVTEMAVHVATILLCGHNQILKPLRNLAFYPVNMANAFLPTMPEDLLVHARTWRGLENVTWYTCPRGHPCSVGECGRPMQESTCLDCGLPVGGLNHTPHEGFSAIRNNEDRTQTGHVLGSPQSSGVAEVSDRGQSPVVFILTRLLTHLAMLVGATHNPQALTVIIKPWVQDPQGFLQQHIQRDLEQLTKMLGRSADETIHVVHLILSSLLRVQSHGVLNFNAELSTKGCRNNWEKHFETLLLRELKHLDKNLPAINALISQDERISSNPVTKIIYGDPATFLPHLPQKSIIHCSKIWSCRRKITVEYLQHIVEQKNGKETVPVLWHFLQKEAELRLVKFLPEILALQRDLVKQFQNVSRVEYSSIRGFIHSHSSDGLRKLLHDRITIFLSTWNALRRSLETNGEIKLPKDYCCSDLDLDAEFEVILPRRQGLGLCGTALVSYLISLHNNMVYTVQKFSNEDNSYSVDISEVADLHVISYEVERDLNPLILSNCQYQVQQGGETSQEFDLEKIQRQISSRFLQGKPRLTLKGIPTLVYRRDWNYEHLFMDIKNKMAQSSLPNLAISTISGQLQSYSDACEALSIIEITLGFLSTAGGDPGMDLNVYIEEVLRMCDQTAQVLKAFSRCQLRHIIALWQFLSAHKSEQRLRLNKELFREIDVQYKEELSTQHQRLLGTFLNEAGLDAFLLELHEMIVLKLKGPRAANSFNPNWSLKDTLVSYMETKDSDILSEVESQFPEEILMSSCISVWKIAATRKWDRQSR

One test addresses T1, Myc-IRF3 (UniProt P70671).
T1 sequence: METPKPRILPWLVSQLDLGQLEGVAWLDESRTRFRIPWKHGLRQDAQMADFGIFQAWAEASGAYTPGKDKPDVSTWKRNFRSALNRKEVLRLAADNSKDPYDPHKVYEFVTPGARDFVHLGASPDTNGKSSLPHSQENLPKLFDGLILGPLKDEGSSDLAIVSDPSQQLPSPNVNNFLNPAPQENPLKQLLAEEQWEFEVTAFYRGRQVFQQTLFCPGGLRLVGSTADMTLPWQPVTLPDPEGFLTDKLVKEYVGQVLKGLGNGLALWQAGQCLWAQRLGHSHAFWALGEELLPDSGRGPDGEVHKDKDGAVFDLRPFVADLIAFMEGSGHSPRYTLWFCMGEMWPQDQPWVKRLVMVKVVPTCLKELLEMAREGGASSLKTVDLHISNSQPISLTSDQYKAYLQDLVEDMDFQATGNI
Description: co-IP; lysates of HEK293T cells co-transfected with V5-RNF213 and the tagged partner, collected 36 h after transfection; V5-RNF213 co-IP with the tagged partner; IP buffer 50 mM Tris-HCl pH 7.4, 2 mM EDTA, 150 mM NaCl, 1% NP-40, 10% glycerol, 1 mM DTT; protein A/G agarose and 5 μg antibody, 12 h at 4 °C.

In test [1] the target is T2, FLAG-TRAF3 Q91A mutant (mouse) (mouse) (UniProt Q60803).
T2 sequence: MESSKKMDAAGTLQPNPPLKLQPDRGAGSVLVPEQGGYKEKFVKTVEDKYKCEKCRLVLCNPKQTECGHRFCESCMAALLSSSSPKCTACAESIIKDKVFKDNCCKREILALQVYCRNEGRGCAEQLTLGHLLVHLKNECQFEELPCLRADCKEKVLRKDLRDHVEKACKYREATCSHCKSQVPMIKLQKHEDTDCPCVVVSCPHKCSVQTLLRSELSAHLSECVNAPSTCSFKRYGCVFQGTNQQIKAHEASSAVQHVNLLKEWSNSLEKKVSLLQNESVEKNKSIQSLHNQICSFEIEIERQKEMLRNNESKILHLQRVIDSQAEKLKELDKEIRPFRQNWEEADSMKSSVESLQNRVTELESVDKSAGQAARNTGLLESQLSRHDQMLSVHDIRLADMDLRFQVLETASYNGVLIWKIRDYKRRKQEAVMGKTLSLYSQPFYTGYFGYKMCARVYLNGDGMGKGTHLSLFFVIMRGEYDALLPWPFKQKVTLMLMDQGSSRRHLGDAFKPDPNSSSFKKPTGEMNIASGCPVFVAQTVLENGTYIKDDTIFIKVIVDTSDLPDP
The description is as above.

The next test concerns the target T3, Myc-TBK1 (UniProt Q9WUN2).
T3 sequence: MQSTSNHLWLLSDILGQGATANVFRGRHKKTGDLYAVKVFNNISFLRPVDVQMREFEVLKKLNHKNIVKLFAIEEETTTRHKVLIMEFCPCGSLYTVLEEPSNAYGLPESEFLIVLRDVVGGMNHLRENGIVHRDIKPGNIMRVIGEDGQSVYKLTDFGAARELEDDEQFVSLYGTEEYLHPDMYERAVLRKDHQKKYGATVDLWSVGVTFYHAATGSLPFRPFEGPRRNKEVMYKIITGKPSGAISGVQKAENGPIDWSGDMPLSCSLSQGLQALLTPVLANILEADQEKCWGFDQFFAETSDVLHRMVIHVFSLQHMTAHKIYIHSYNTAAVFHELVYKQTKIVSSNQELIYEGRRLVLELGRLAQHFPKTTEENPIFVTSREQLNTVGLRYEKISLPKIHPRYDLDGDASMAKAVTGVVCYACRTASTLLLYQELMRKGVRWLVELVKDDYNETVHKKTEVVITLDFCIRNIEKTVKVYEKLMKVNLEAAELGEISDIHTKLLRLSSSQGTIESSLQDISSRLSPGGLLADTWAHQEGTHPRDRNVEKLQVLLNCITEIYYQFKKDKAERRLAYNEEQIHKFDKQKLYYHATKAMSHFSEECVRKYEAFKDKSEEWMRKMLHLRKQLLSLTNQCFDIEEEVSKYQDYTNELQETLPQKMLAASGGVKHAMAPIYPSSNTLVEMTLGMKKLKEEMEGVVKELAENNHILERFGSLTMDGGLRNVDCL
The test is described as above.

Another test deals with T4, HA-TRIF (UniProt Q80UF7).
T4 sequence: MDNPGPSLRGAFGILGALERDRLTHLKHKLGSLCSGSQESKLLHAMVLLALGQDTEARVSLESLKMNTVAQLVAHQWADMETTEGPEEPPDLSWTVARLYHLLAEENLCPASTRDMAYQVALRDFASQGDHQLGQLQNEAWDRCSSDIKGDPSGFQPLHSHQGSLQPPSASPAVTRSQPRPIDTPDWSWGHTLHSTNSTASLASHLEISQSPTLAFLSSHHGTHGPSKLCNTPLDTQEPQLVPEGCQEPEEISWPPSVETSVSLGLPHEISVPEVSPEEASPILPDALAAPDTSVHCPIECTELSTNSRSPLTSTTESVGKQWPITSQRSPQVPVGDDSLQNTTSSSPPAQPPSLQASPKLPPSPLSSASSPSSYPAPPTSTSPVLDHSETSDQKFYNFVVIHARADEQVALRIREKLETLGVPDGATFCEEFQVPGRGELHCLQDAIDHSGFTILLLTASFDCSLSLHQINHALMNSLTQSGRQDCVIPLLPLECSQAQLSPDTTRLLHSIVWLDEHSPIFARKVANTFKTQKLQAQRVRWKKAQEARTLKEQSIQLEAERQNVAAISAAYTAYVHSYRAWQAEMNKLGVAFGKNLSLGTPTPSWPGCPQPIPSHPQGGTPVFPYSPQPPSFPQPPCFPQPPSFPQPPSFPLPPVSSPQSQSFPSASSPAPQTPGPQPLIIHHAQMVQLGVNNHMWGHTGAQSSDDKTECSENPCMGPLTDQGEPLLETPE
The test is described as above.

Test [2] has as its target T5, FLAG-TRAF3 (mouse, full length) (mouse) (UniProt Q60803).
T5 sequence: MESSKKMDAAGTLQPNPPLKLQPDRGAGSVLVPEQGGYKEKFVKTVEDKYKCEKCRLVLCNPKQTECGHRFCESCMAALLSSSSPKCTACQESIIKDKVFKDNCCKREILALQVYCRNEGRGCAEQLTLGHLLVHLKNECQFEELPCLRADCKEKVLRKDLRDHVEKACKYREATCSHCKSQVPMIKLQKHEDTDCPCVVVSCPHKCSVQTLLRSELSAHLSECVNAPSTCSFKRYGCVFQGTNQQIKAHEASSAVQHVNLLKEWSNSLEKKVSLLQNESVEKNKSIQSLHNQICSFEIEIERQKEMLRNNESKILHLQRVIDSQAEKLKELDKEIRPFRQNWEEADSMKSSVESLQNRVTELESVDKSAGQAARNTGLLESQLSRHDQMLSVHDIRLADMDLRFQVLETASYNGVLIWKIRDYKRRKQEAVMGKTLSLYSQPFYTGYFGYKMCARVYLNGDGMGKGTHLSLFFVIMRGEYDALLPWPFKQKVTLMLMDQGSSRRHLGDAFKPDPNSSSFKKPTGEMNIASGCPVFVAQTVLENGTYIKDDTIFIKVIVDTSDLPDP
Described as above.

Test [3] has as its target T6, endogenous TRAF3 (mouse skin fibroblasts) (mouse (endogenous in MSFs)) (UniProt Q60803).
T6 sequence: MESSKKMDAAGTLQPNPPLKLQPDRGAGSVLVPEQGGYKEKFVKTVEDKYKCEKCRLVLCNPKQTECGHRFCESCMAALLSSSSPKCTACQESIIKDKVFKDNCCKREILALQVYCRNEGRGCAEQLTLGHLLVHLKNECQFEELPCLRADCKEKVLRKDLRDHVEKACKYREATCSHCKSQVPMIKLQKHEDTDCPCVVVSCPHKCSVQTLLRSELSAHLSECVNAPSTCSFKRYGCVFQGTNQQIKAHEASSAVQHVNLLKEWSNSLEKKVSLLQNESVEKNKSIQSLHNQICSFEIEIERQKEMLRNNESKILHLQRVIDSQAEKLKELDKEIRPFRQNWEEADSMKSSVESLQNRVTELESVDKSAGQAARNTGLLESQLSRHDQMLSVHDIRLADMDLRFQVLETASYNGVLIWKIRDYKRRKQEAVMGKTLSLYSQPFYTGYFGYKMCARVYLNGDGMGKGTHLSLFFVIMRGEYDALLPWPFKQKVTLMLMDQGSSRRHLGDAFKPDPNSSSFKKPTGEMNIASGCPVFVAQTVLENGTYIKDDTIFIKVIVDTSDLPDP
In words: co-IP; endogenous proteins; immunoprecipitation with an anti-TRAF3 antibody from WT and Rnf213-/- MSFs with or without A. baumannii (50 MOI) infection for 3 hours; same IP buffer, 12 h at 4 °C.

In test [4] the target is V5-RNF213 (mouse RING finger protein 213) (mouse) (UniProt E9Q555). In words: co-IP; reciprocal: FLAG-TRAF3 co-IP with V5-RNF213 from lysates of transfected HEK293T cells; same IP buffer, 12 h at 4 °C.
The target is the same in test [5]. Description: co-IP; co-IP with anti-RNF213 antibody from lysates of HEK293T cells transfected with V5-RNF213 and full length or truncated FLAG-TRAF3; same IP buffer, 12 h at 4 °C.

These are yes or no findings as the source states them, for the method shown. In cells and extracts the contact can be indirect. Some results given as binding are weak or reduced against the parent protein; the word gives no strength. For some assays here: Sequences can lack the tags named with a protein.

Regarding “V5-RNF213 (mouse RING finger protein 213) (from UniProt E9Q555 1-5148) (enzyme)”, the binding entry with Myc-IRF3 is recorded as “no binding”; in test [1], “no binding”; with Myc-TBK1, “no binding”; with HA-TRIF it was “no binding”; in test [2], “binds”.

For the molecule “endogenous RNF213 (mouse skin fibroblasts) (from UniProt E9Q555 1-5148) (enzyme)”, the binding result in test [3] is reported as “binds”.

B1: FLAG-TRAF3 (mouse, full length) (protein, UniProt Q60803 1-567)
chain: MESSKKMDAAGTLQPNPPLKLQPDRGAGSVLVPEQGGYKEKFVKTVEDKYKCEKCRLVLCNPKQTECGHRFCESCMAALLSSSSPKCTACQESIIKDKVFKDNCCKREILALQVYCRNEGRGCAEQLTLGHLLVHLKNECQFEELPCLRADCKEKVLRKDLRDHVEKACKYREATCSHCKSQVPMIKLQKHEDTDCPCVVVSCPHKCSVQTLLRSELSAHLSECVNAPSTCSFKRYGCVFQGTNQQIKAHEASSAVQHVNLLKEWSNSLEKKVSLLQNESVEKNKSIQSLHNQICSFEIEIERQKEMLRNNESKILHLQRVIDSQAEKLKELDKEIRPFRQNWEEADSMKSSVESLQNRVTELESVDKSAGQAARNTGLLESQLSRHDQMLSVHDIRLADMDLRFQVLETASYNGVLIWKIRDYKRRKQEAVMGKTLSLYSQPFYTGYFGYKMCARVYLNGDGMGKGTHLSLFFVIMRGEYDALLPWPFKQKVTLMLMDQGSSRRHLGDAFKPDPNSSSFKKPTGEMNIASGCPVFVAQTVLENGTYIKDDTIFIKVIVDTSDLPDP
Take B1: the binding result in test [4] and in test [5] was “binds” throughout.
